Source: PubChem BioAssay AID485294 (National Center for Advancing Translational Sciences (NCATS), 2010)
About 150 (0.041%) of roughly 370,000 compounds were called active. The inconclusive results got no clear call from the source; some entries with a clear call stand among them for comparison. The call rests on the fitted dose curve; in most records, active means well fitted inhibition curve with a large enough effect; inconclusive means small, poorly fitted or top-dose-only effect; inactive means flat fitted curve, though single readings scatter. No potency is given beside an inconclusive call; the fits are too rough.

Target: Beta-lactamase (Escherichia coli (strain K12)) (UniProt P00811)
UniProt P00811, sequence (P00811 whole entry, looked up): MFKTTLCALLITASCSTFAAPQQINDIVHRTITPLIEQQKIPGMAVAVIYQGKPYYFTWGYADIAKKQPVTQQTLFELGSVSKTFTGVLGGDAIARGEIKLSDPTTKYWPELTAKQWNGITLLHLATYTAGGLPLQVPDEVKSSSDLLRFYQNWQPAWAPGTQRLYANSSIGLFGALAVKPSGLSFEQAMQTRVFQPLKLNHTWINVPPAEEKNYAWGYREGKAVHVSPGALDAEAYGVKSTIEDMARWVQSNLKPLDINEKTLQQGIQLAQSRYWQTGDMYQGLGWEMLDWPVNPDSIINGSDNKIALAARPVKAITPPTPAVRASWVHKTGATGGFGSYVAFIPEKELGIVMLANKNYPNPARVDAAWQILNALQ
Experiment: qHTS Inhibitors of AmpC Beta-Lactamase (assay with detergent); further: nearly all actives have a fitted effect of over 25% in size;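 on activity change, negative = inhibition: 0% = no-compound wells and -100% = no-enzyme wells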
Conditions: AmpC hydrolysis of nitrocefin, absorbance 480 nm, 0.01% Triton; activity change, negative = inhibition: at 114 µM (top of the series)
How it was run: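 20 mM phosphate pH 7.0 + 0.01% (detergent screen) or 0.0001% Triton X-100; 5.3 nM AmpC reagent; cpd preinc 15 min RT; nitrocefin (800 uM stock) to start; A480 q20 s × 4 min; Activity was normalised to no-enzyme and no-compound control wells.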
Potency means the concentration at half of the fitted maximal effect; tags describe the fitted curve by direction and shape.

SMILES | Potency | activity change, negative = inhibition
NC(=O)COC(=O)CNC(=O)c1cc(Cl)cc([N+](=O)[O-])c1 | inconclusive [inhibitor, partial curve] | 
O=C(c1cc(-c2ccc(Br)cc2)on1)N1CCc2ccccc2C1 | inconclusive [inhibitor, full curve] | 
COc1ccc(CNC(=O)CCC(=O)n2ncc3cc(C)ccc32)cc1 | inconclusive [inhibitor, partial curve, poor fit] | 
CCOC(=O)c1ccc2ncc3c(-c4ccccc4)nn(-c4ccc(F)c(Cl)c4)c3c2c1 |  | inactive: 1.06%
O=C(Nc1ccc(N2CCOCC2)cc1)c1ccc(Br)o1 |  | inactive: 4.05%
Cc1ccc2nsnc2c1N |  | inactive: -4.01%
CC1(C)CC(=O)C(C(C2=C(O)CC(C)(C)CC2=O)c2ccc(Br)s2)C(=O)C1 (configuration not stated) | inconclusive [inhibitor, partial curve, poor fit] | 
O=C1CCCN1CCCNc1ncnc2sccc12 | inconclusive [inhibitor, partial curve] | 
COc1ccc2cc(C(=O)C3CCCN(C(=O)CCc4ccccn4)C3)ccc2c1 (configuration not stated) |  | inactive: 1.08%
COc1ccc(S(=O)(=O)N2CCCCC2)cc1NC(=O)c1ccc(OC)c(OC)c1 | inconclusive [inhibitor, full curve, poor fit] | 
CC(=O)N1CCN(c2ccc(NC(=O)c3ccco3)cc2)CC1 | inconclusive [inhibitor, full curve, poor fit] | 
COc1ccc(C2C(C#N)=C(N)N(c3ccccc3)C3=C2C(=O)CCC3)cc1Cn1cc([N+](=O)[O-])cn1 (configuration not stated) | inconclusive [inhibitor, single point] | 
Cc1occc1C(=O)Nc1nccs1 | inconclusive [inhibitor, full curve, poor fit] | 
C#Cc1ccc([C@H]2C=C(C(=O)NCc3ccccc3)O[C@@H](OCC)[C@@H]2CCCO)cc1 |  | inactive: 1.6%
O=C(O)C1(c2ccccc2)CCN(S(=O)(=O)c2ccc(F)c(F)c2)CC1 | inconclusive [inhibitor, full curve, poor fit] | 
Cc1ccc(O)c(CNc2ccccn2)c1 | inconclusive [inhibitor, partial curve, poor fit] | 
Cc1ccc(C2(O)C(=O)c3ccccc3C2=O)c(O)c1C | inconclusive [inhibitor, partial curve, poor fit] | 
C#Cc1ccc([C@H]2C=C(C(=O)OCC=C)O[C@@H](OCC)[C@@H]2CCCO)cc1 |  | inactive: 7.81%
Cc1ccc(C)c(S(=O)(=O)N2CCN(C(C(=O)Nc3ccc(F)cc3)c3ccccc3)CC2)c1 (configuration not stated) | inconclusive [inhibitor, full curve, poor fit] | 
CCOc1ccccc1C(=O)NC1CCN(Cc2nnnn2C2CCCC2)CC1 | inconclusive [inhibitor, partial curve] | 
CC(=O)N1CCc2nc3sc(C(=O)Nc4ccc(Cl)cc4F)c(N)c3c(C(F)(F)F)c2C1 |  | inactive: -1.05%
C/C(=N\NC(=O)c1nn(C)c(C)c1Br)c1cccc(NC(=O)c2ccc(F)cc2)c1 |  | inactive: 4.27%
O=c1c2c(nc3n1CCCCC3)-c1ccccc1CC21CCCCC1 | inconclusive [inhibitor, partial curve] | 

SMILES | Potency | activity change, negative = inhibition
CCN(CC)C(=O)c1ccc(NC(=O)c2cccc(F)c2)cc1 |  | inactive: -0.0598%
COc1ccc(-n2c(=O)c(CCC(=O)N3CCN(c4ccccc4O)CC3)nc3ccccc32)cc1 | inconclusive [inhibitor, full curve, poor fit] | 
CCOc1ccccc1N(C(=O)c1snc(C(N)=O)c1N)C(C(=O)NC1CCCC1)c1ccco1 (configuration not stated) |  | inactive: -8.81%
OC(CCN1CCCCC1)(c1ccccc1)C1CCCCC1 (configuration not stated) | inconclusive [inhibitor, full curve, poor fit] | 
CCOC(=O)c1c(-c2ccccc2)oc2ccc(N(C(C)=O)S(=O)(=O)c3ccc(CC)cc3)cc12 |  | inactive: 12.9%
O=S(=O)(Nc1ccc2c(c1)oc1ccccc12)N1CCCC1 |  | inactive: 3.86%
COc1ccc(-c2csc(NC(=S)NC(=O)c3ccc4ccccc4c3)n2)cc1OC | inconclusive [inhibitor, full curve, poor fit] | 
Cc1cc(C(=O)Oc2ccccc2C(=O)O)c(C)o1 | inconclusive [inhibitor, partial curve, poor fit] | 
c1ccc2c(CNC3CCCCCC3)c[nH]c2c1 | inconclusive [inhibitor, full curve, poor fit] | 
O=C(Cc1ccccc1)NNC(=O)c1cnccn1 | inconclusive [inhibitor, single point] | 
O=C(c1ccc2c(=O)n3c(nc2c1)CCCCC3)N1CCN(c2cccc(Cl)c2)CC1 | inconclusive [inhibitor, full curve, poor fit] | 
Cc1nn(C(=O)c2cccc(Cl)c2)c(C)c1S(=O)(=O)N1CCOCC1 | inconclusive [inhibitor, full curve, poor fit] | 
Cc1ccc(C(=O)Nc2ccc3c(c2)OCCO3)cc1 |  | inactive: -7.34%
CC(C)OP(=O)(c1ccc(N(C)C)cc1)C(O)c1ccccc1 (configuration not stated) | inconclusive [inhibitor, full curve, poor fit] | 
C=CCN(CC=C)C(=O)CN1C(=O)NC(Cc2c[nH]c3ccccc23)C1=O (configuration not stated) | inconclusive [inhibitor, partial curve] | 
CN(C(=O)c1ccc2c(c1)OCCO2)c1c(N)n(Cc2ccccc2)c(=O)[nH]c1=O | inconclusive [inhibitor, partial curve] | 
N#CC1CCN(C(=O)c2ccc3c(Cl)c4c(nc3c2)CCCC4)CC1 | inconclusive [inhibitor, full curve, poor fit] | 
COc1cccc2c1cc1c(=O)n(CC(=O)NCc3ccc(C)o3)nc(C)n12 |  | inactive: 15.5%
Cc1cc(O)c(-c2cc(C(=O)Nc3sc4c(c3C(=O)NCc3ccco3)CCC4)[nH]n2)cc1C | inconclusive [inhibitor, partial curve] | 
CC(C)(C)NC(=O)CN(Cc1cccs1)C(=O)CNS(=O)(=O)c1ccccc1 | inconclusive [inhibitor, full curve, poor fit] | 
COc1cccc(C2CC(c3cccc(Br)c3)n3ncnc3N2)c1 (configuration not stated) | inconclusive [inhibitor, full curve, poor fit] | 
CCC1=NN(C(=O)c2cccc([N+](=O)[O-])c2)C(O)(c2ccc(C)cc2)C1 (configuration not stated) | inconclusive [inhibitor, full curve, poor fit] | 
CS(=O)(=O)c1ccc(Cl)c(NC(=O)COC(=O)CNC(=O)c2ccc(Br)o2)c1 | inconclusive [inhibitor, single point] | 

SMILES | Potency | activity change, negative = inhibition
COc1ccccc1CC(=O)Nc1cc(C)ccn1 | inconclusive [inhibitor, partial curve] | 
Cc1onc(-c2c(F)cccc2Cl)c1C(=O)Nc1cccc(Cn2cccn2)c1 | inconclusive [inhibitor, full curve] | 
Cc1ccc2nc(NC(=O)c3ccc(Cl)s3)sc2c1 | inconclusive [inhibitor, full curve, poor fit] | 
Cc1ccc(-c2c(C)n([O-])c3c([n+]2=O)CCC3)o1 | inconclusive [inhibitor, full curve, poor fit] | 
CC(C)Cn1c(C(C)NC(=O)Cc2ccccc2)nc2ccccc21 (configuration not stated) | inconclusive [inhibitor, full curve, poor fit] | 
Cc1cc(C)n(/N=C/c2ccccc2)c(=O)c1C#N | inconclusive [inhibitor, single point] | 
COc1ccccc1NC(=O)Nc1ccc(Cc2ccncc2)cc1 | inconclusive [inhibitor, full curve, poor fit] | 
CCOC(=O)c1sc2nc(C)nc(N3CCCCC3C)c2c1C (configuration not stated) | inconclusive [inhibitor, partial curve] | 
CCc1ccc(N2CCN(CCNC(=O)Nc3ccccc3)CC2)cc1 | inconclusive [inhibitor, full curve] | 
CN(C)c1ccc(/C=N/N2CCN(c3ccccn3)CC2)cc1 |  | inactive: -7.05%
CN(Cc1ccccc1)C(=O)c1ccccc1NC(=O)C1CC1 | inconclusive [inhibitor, full curve, poor fit] | 
Oc1ccc(Cl)cc1CNCC1CCCO1 (configuration not stated) | inconclusive [inhibitor, full curve, poor fit] | 
Cc1ccc(N=Cc2ccc[nH]2)c(O)c1 |  | inactive: 1.66%
COc1ccc(NC(=O)CSc2nc3nc(C)c(Cc4ccccc4)c(C)n3n2)cc1OC |  | inactive: 6.03%
COc1ccc(/C=N\NC(=O)c2cc(O)c(O)c(O)c2)cc1COc1ccc(C(=O)OCC(C)C)cc1 |  | inactive: 2.57%
CC(C)(C)NC(=O)Nc1ccc(Cn2cc(C(F)(F)F)ccc2=O)cc1 | inconclusive [inhibitor, partial curve, poor fit] | 
O=C(NCCc1ccccc1)c1cccnc1N1CCCCCC1 | inconclusive [inhibitor, partial curve, poor fit] | 
CCCCNc1cc(C)nc(N2CCOCC2)n1 |  | inactive: -7.6%
FC(F)(F)c1cc(-c2ccco2)nc(NCc2cccs2)n1 |  | inactive: -8.84%
Cc1noc(C)c1CSCC(=O)Nc1nc2ccc(S(C)(=O)=O)cc2s1 | inconclusive [inhibitor, single point] | 
Cc1cccc(-c2nsc(SCC(=O)Nc3cc(C)on3)n2)c1 | inconclusive [inhibitor, single point] | 
